Measurements as given in PubChem BioAssay AID1347417 (National Center for Advancing Translational Sciences (NCATS), 2020).
Hit rate of the full screen: of about 120,000 compounds, about 5,300 (4.4%) were called active. The shares of active, inactive and inconclusive entries below differ from those in the screen. Calls follow the shape of the dose curve; as a rule, active = well fitted inhibition curve with a large enough effect; inconclusive = small, poorly fitted or top-dose-only effect; inactive = no such curve, though single readings can be large or run the other way. Potencies of inconclusive entries are doubtful fits and often do not repeat.

Experiment: qHTS Primary assay for Inhibitors of Plasmodium falciparum Dd2 growth in vitro; also: nearly all actives have a fitted effect of over 65% in size
Details: P. falciparum Dd2 growth, SYBR Green, 72 h; series mostly up to 28.9 µM
Excerpt: Malaria, a parasitic disease spread to humans through the bite of a Plasmodium infected Anopheles mosquito, continues to be a global health burden affecting millions of people, with an estimated 228 million cases and 405,000 deaths in 2018. Concerns about safety and limitations of current antimalarial treatments strongly emphasize the need to develop new therapeutic options. The scarce number of chemotypes and validated drug targets with efficacy against the liver stage, have hindered development of new antimalarials. To address this, a chemoprophylactic drug discovery effort was conducted through a combined phenotypic high-throughput asexual blood stage and liver stage screen, providing a robust foundation to identify liver-stage active lead chemotypes. Compounds were initially screened against Plasmodium falciparum Dd2 strain parasites using a in vitro SYBRGreen-1 based 72 hr proliferation assay to identify novel chemotypes to advance to liver stage assays. NIH/NCATS Early Translation Branch Assay Submitter (PI): Anton Simeonov Ph.D.
Malaria-vivax Assay Protocol: PROTOCOL TABLE (as described by Inglese et al., 2007) SEQUENCE No. (e.g., 1, 2, 3, etc.); […] (e.g., Cells, Incubation, Reagent, etc.); VALUE; DESCRIPTION SEQUENCE, Parameter, Description 1; Reagent; 3 uL complete malaria growth medium, 1536 TC treated Black clear bottom plate 2; Controls; 23 nL positive control artesunate (300 nM final) to column 1; Neutral control DMSO to columns 2-4 3; Compound; 23 nL of compounds in dose response concentration (29 uM to 0.5 nM final) 4; Reagent; 5 uL malaria infected red blood cells (2.5% hematocrit final, 0.3% parasitemia 5; Time; 72 hours at 37C (5% O2, 5% CO2, 90% N2; 95% Rh) 6; Reagent; 2 uL lysis buffer/SYBRGreen-1, 25 sec shake immediately following dispense 7; Time; ~16 hours at 37C (5% O2, 5% CO2, 90% N2; 95% Rh) 8; Detector; EnVision (PerkinElmer) bottom read at 485/14nm excitation and 535/25 nm emission NOTES (numbers refer to sequence above): 1; Complete Malaria Growth Media: 1X RPMI-1640 w/L-glutamine, 5.5g/L Albumax II, 367 uM Hypoxanthine, 25 mM HEPES, 0.25% Sodium Bicarbonate, 35 uM Gentamicin sulfate 2; Controls were added using the Kalypsis Pintool (Wako USA) equipped with 1536 pinhead 3; Compounds were added in a 7-point, titration with a high final concentration of 29 uM by Pintool from seven inter-plate titrations of library plates and two DMSO control plates at the beginning and end (see Yasgar et al., 2008). 4; Red blood cells infected with Plasmodium falciparum Dd2 parasites were used. 6; Lysis buffer: 20 mM Tris-HCl, 10 mM EDTA, 0.16% Saponin, 1.6% Triton-X, 10X SYBR Green. REFERENCE: Inglese J, Shamu CE, Guy RK. 2007. Reporting data from high-throughput screening of small-molecule libraries. Nat Chem Biol. doi:10.1038/nchembio0807-438 Yasgar A, Shinn P, Jadhav A, Auld D, Michael S, Zheng W, Austin CP, Inglese J, Simeonov A. 2008. Compound Management for Quantitative High-Throughput Screening. J Lab Autom 13:79-89. doi:10.1016/j.jala.2007.12.004
Potency is read from the fitted curve at half-maximal effect; tags tell the direction and shape of the fitted curve.

SMILES | Potency
O=C(O)COc1ccc(-c2nccc3c2C(=O)N(Cc2cccc(C(F)(F)F)c2)CC(CNC(=O)C2CCOCC2)O3)cc1 (configuration not stated) | inconclusive: 3.16 µM [inhibitor, single point]
CC(C)Oc1ccc(C(=O)N2Cc3cnn(Cc4ccc(F)cc4)c3C2)cc1 | inconclusive: 17.8 µM [inhibitor, single point]
O=C(NCCOc1ccccc1)c1cnc2n1CCN(Cc1c[nH]c3ccccc13)CC2 | inconclusive: 22.4 µM [inhibitor, single point]
O=C(c1cc2ccccc2[nH]1)N1CCC(N2C(=O)C(O)C23CCCCC3)CC1 (configuration not stated) | inconclusive: 8.91 µM [inhibitor, single point]
CC(C)CCN1CCOc2cc(C(=O)Nc3ccc(F)cc3)ccc2C1 | inconclusive: 7.08 µM [inhibitor, partial curve, poor fit]
COc1ccc(OC)c(C2C(C(=O)Nc3ccc(C)cc3C)=C(C)Nc3c(C(=O)Nc4ccc(F)cc4)cnn32)c1 (configuration not stated) | inconclusive: 10 µM [inhibitor, single point]
CCn1c2c(c(=O)n3ncc(C(=O)N4CCN(c5ccccc5)CC4)c13)CN(Cc1ccc(OC)cc1)CC2 | inconclusive: 14.1 µM [inhibitor, single point]
Cc1cc(C(=O)Nc2ccc([C@H]3OCC(=O)N(Cc4ccccc4)[C@@H]3CO)cc2)n(C)n1 | inactive
CCOC(=O)CCc1c(C)nc2c(-c3ccccc3)c(C)[nH]n2c1=O | inactive
COC(=O)c1cn([C@H]2CO[C@H]3[C@@H]2OC[C@@H]3NC(=O)NC2CCCCC2)nn1 | inactive
COc1cccc(CNC(=O)N2CCc3c(sc4c3CCCC4)C2c2ccc(F)cc2)c1 (configuration not stated) | inconclusive: 11.2 µM [inhibitor, single point]
Cc1cc(Nc2cccc(C(F)(F)F)c2)nc2ccc(NC(=O)Cc3ccc(Cl)cc3)cc12 | active: 11.2 µM
CC(C)c1ccc(CC(=O)N2CCCc3ncc(C(=O)Nc4cccc(C(F)(F)F)c4)cc32)cc1 | inactive
COc1ccc(Nc2cc(C)c3cc(NC(=O)c4ccccc4Cl)ccc3n2)cc1 | inconclusive: 8.91 µM [inhibitor, partial curve, poor fit]
Fc1ccc(-c2noc3ncnc(NCCc4ccc(Cl)cc4)c23)cc1 | inconclusive: 17.8 µM [inhibitor, single point]
CC(C)c1ccc2c(c1)NC(c1ccc(F)cc1)=NC(c1cccs1)=N2 | inconclusive: 10 µM [inhibitor, single point]
O=C1CC(c2ccccc2)N(Cc2ccc3c(c2)CCO3)CCCCCCN1 (configuration not stated) | active: 12.6 µM
